We go through 45 compounds from publication PMC4336329 (PLoS ONE, 2015).

Hit rate of the full screen: of about 310,000 compounds, about 14,000 (4.5%) showed an effect of 50% or more. The effect is printed as a negative number. Some of the results follow.
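Also: peak tail current of the secondary pulse compared with the same well before compound.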

Sequence of human ether-à-go-go-related gene (hERG) potassium channel (Q12809 whole entry, looked up): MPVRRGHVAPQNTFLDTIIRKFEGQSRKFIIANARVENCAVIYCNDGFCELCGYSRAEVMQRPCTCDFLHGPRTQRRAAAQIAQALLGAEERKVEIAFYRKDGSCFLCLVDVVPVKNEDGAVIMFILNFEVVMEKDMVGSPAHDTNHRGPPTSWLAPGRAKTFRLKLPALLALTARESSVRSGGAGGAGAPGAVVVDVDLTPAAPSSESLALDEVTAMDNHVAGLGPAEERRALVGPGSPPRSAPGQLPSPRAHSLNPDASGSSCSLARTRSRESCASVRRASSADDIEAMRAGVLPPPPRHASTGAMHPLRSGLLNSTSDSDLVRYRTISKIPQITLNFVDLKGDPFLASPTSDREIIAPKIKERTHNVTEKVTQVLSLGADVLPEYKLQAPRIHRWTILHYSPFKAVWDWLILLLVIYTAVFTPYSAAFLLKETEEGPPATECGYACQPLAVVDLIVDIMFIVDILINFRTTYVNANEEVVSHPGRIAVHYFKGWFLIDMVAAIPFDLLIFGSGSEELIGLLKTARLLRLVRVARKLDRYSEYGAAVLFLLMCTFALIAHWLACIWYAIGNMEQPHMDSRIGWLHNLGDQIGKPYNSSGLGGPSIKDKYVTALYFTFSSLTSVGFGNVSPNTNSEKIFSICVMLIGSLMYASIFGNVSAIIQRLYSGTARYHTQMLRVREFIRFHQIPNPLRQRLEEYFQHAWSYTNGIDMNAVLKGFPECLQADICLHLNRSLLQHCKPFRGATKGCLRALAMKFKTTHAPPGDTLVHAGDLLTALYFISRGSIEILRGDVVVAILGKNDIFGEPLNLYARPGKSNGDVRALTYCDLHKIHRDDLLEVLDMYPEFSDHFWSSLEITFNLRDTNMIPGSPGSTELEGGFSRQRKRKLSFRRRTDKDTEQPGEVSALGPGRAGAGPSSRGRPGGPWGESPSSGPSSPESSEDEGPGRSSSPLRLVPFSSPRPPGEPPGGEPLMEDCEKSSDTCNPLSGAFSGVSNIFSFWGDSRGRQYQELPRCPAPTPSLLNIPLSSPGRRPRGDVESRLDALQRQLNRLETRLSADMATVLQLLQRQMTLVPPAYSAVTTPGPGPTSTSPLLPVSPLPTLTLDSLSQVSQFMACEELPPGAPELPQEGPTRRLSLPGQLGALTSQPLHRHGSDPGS

The assay addresses human ether-à-go-go-related gene (hERG) potassium channel (human, UniProt Q12809). The experiment in a line: primary screen, population patch clamp on CHO cells stably expressing hERG.
Regarding `COc1ccc(CCCC(=O)N/N=C/c2ccc(C)cc2)cc1`, the “hERG current change (%, negative = inhibition) at 10uM” value was 19%.

Consider `Cc1ccc(-n2c(SCC(=O)N/N=C/c3ccc(C)s3)nnc2-c2ccccc2)cc1`, for which the “hERG current change (%, negative = inhibition) at 10uM” value is -31.6%.

As to `CCOC(=O)[C@H](CCc1ccccc1)N[C@@H](C)C(=O)N1CCC[C@H]1C(=O)O.O=C(O)/C=C\C(=O)O`, the “hERG current change (%, negative = inhibition) at 10uM” value is 23.4%.

Regarding `O=C(Cn1cnc2c(oc3ccccc32)c1=O)N1CCCC1`, the “hERG current change (%, negative = inhibition) at 10uM” value worked out at 12.7%.

For `CC1CC1C(=O)OCC(=O)NCc1ccc(Cl)cc1` (stereo not drawn), the “hERG current change (%, negative = inhibition) at 10uM” value was -2.61%.

In the case of `Cc1ccccc1/C=C/c1cc[n+](C)cc1.[I-]`, the “hERG current change (%, negative = inhibition) at 10uM” value amounted to 24.8%.

With `O=C(NC1CCCC1)C1C2C=CC(C2)C1C(=O)N1CCOCC1` (stereo not drawn), the “hERG current change (%, negative = inhibition) at 10uM” value came out at 15.8%.

In the case of `COC(=O)c1ccc(NC(=O)NS(=O)(=O)c2ccc(C)cc2)cc1`, the “hERG current change (%, negative = inhibition) at 10uM” value was -3.1%.

With `O=C(NNC(=O)c1ccccc1Br)c1ccc(SCC2CCCO2)c([N+](=O)[O-])c1` (stereo not drawn), the “hERG current change (%, negative = inhibition) at 10uM” value was 1.07%.

In the case of `COc1ccc2c(c1)C(=O)CC(c1ccccc1F)O2` (stereo not drawn), the “hERG current change (%, negative = inhibition) at 10uM” value is -15.1%.

With `Cc1cc(N2CCCCC2)n2ncc(-c3ccccc3)c2n1`, the “hERG current change (%, negative = inhibition) at 10uM” value is -2.06%.

Take `Cc1ccc(-c2nnc(SCC(=O)CC(=O)Nc3ccccc3)n2-c2ccccc2)cc1`: the “hERG current change (%, negative = inhibition) at 10uM” value was -7.7%.

On to `CCOC(=O)C1CCCN(C(=O)c2sc3nc(-c4ccc(F)cc4)cn3c2C)C1` (stereo not drawn), for which the “hERG current change (%, negative = inhibition) at 10uM” value is -72.9%.

As to `COc1ccccc1N1CCN(Cc2cc(=O)c(OCC(=O)NC3CCCC3)co2)CC1`, the “hERG current change (%, negative = inhibition) at 10uM” value was -22.5%.

Turning to `CCOC(=O)N1CCN(C(=O)CN(C2CCCCC2)S(=O)(=O)c2c(C)cc(C)cc2C)CC1`, the “hERG current change (%, negative = inhibition) at 10uM” value is -14.6%.

For `N/C(Cc1ccc(Cl)cc1Cl)=N\OC(=O)Cc1cccs1`, the “hERG current change (%, negative = inhibition) at 10uM” value is recorded as -1.08%.

Regarding `Cc1csc(=Nc2c(C)n(C)n(-c3ccccc3)c2=O)n1Cc1ccccc1`, the “hERG current change (%, negative = inhibition) at 10uM” value is reported as -29%.

For the compound `CCC(=O)c1c(NC)cc(C)oc1=O`, the “hERG current change (%, negative = inhibition) at 10uM” value was -32%.

For `COc1ccccc1C(=O)NNC(=O)c1ccccc1`, the “hERG current change (%, negative = inhibition) at 10uM” value was found to be 11%.

For `CCCCc1nc2cc(C(=O)N(C)C3CCOCC3)ccc2o1`, the “hERG current change (%, negative = inhibition) at 10uM” value was 4.32%.

For `COc1ccc(CCNC(=O)c2ccccc2OCc2c(C)noc2C)cc1`, the “hERG current change (%, negative = inhibition) at 10uM” value is reported as -26.4%.

With `CN(Cc1ccccc1)c1ccc(S(=O)(=O)N2CCOCC2)cn1`, the “hERG current change (%, negative = inhibition) at 10uM” value is -5.27%.

As to `O=C(CCc1ccccc1)NC(=S)NCc1ccco1`, the “hERG current change (%, negative = inhibition) at 10uM” value is on record as 1.43%.

Turning to `CCCc1[nH]c(=O)c(C#N)c2c1COC(C)(C)C2`, the “hERG current change (%, negative = inhibition) at 10uM” value turned out to be 18.2%.

For `CN(c1ccc(C(=O)NCc2ccc3c(c2)OCO3)cc1)S(C)(=O)=O`, the “hERG current change (%, negative = inhibition) at 10uM” value is on record as -7.39%.

`CCOc1ccc(N2C(=O)C3C(c4ccccc4F)NN(C(=O)c4ccc(C)cc4)C3C2=O)cc1` (stereo not drawn): the “hERG current change (%, negative = inhibition) at 10uM” value came to 4.82%.

Turning to `O=C(NC1CCCCC1)C1CCN(S(=O)(=O)c2cccc3nsnc23)CC1`, the “hERG current change (%, negative = inhibition) at 10uM” value was 18.5%.

Regarding `Cc1ccc(SCc2ccc(C(=O)NCc3ccncc3)cc2)cc1`, the “hERG current change (%, negative = inhibition) at 10uM” value is listed as -8.58%.

As to `Cc1csc(SCC(=O)Nc2nnc(C)s2)n1`, the “hERG current change (%, negative = inhibition) at 10uM” value is on record as 15%.

`COC(=O)c1c(NC(=O)c2c(Cl)cnn2C)sc(C)c1C`: the “hERG current change (%, negative = inhibition) at 10uM” value came to 11.1%.

Regarding `CN1CCN(CC(=O)Nc2ccc(Cl)cc2C(=O)c2ccccc2)CC1`, the “hERG current change (%, negative = inhibition) at 10uM” value is -77.2%.

On to `Clc1ccc(-c2nc(Cc3ccccc3)no2)cc1`, for which the “hERG current change (%, negative = inhibition) at 10uM” value is recorded as 11.9%.

For the compound `COc1ccccc1CNC(=O)Cn1c(=O)c2cccn2c2cccnc21`, the “hERG current change (%, negative = inhibition) at 10uM” value is on record as 6.03%.

Take `O=C(CCC(=O)c1cccs1)NCc1ccc(F)cc1`: the “hERG current change (%, negative = inhibition) at 10uM” value is on record as -25.1%.

Take `COc1ccc(/C=C/C(=O)NCCCN2CCOCC2)cc1`: the “hERG current change (%, negative = inhibition) at 10uM” value is -29.4%.

Consider `CC(C)c1ccccc1NS(C)(=O)=O`, for which the “hERG current change (%, negative = inhibition) at 10uM” value is 21.2%.

Regarding `Cc1ccc(-c2nnc(-c3cc(C)on3)o2)cc1`, the “hERG current change (%, negative = inhibition) at 10uM” value was 19.6%.

As for `CC(=O)NCc1ccc(-c2csc(NC(=O)CCCc3nc4ccccc4c(=O)[nH]3)n2)cc1`, the “hERG current change (%, negative = inhibition) at 10uM” value is 4.05%.

As to `O=C(C1CC1)N1CCC(C(O)(c2ccccc2)c2ccccc2)CC1`, the “hERG current change (%, negative = inhibition) at 10uM” value is given as -13.8%.

On to `CC1(C)Cc2c(c(=S)nc(-c3ccccc3)n2CCCN2CCOCC2)CO1`, for which the “hERG current change (%, negative = inhibition) at 10uM” value was determined as 1.98%.

Regarding `O=S(=O)(Nc1cccc(S(=O)(=O)N2CCCCCC2)c1)c1ccccc1`, the “hERG current change (%, negative = inhibition) at 10uM” value is on record as -24%.

For the compound `O=C(CCc1n[nH]c(=O)[nH]c1=O)Nc1cccc([N+](=O)[O-])c1`, the “hERG current change (%, negative = inhibition) at 10uM” value is listed as 28.3%.

For the compound `Cc1ccc(Cl)cc1N1CCN(C(=O)Cc2cn(C)c3ccccc23)CC1`, the “hERG current change (%, negative = inhibition) at 10uM” value was determined as 3.85%.

For `CC1CCCN(C(=O)CCS(=O)(=O)c2ccc3c(c2)NC(=O)C(C)S3)C1` (stereo not drawn), the “hERG current change (%, negative = inhibition) at 10uM” value is -1.82%.

As for `COc1ccc(OC)c(S(=O)(=O)N2CCN(Cc3ccccc3)CC2)c1`, the “hERG current change (%, negative = inhibition) at 10uM” value stood at 2.05%.
